Measurements published in the supplement of paper PMC11741623.
The other results are listed elsewhere or left out. Interaction screen of human proteins with wild-type SARS-CoV-2 proteins by split-DHFR complementation in yeast, 1 µg/mL methotrexate. Value = fitness of the pair (three or more lineages) minus that of the viral protein without a human partner, on a scale set by negative (0) and fused positive (1) controls, mean of up to three cultures; higher = more likely to interact. Active = false discovery rate below 0.05 (one-sided t-test) in at least one culture. Nearly all pairs are not hits, and differences among them are mostly noise (correlation between cultures about 0.3); most hits were seen in one culture only. Human sequences are the Swiss-Prot entries looked up by gene name; the clone may be another isoform. NSP2 values were corrected by the authors for a growth advantage. Listed are human proteins with a hit and a random twelfth of the others.

Experiments:
Assay in all cases: yeast fitness gain over the viral ORF with no human partner (scaled fitness); higher = more likely to interact
SARS-CoV-2 M = target: SARS-CoV-2 M
Protocol: (§1)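 Split mouse DHFR complementation in pooled diploid yeast: human ORFeome clones carry one fragment and viral ORFs the other; barcoded lineages compete in 1 µg/mL methotrexate and fitness is read by barcode sequencing in up to three cultures.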

SARS-CoV-2 NSP1 = target: SARS-CoV-2 NSP1
Protocol: as §1

SARS-CoV-2 NSP10 = target: SARS-CoV-2 NSP10
Protocol: as §1

SARS-CoV-2 NSP12 = target: SARS-CoV-2 NSP12
Protocol: as §1

SARS-CoV-2 NSP13 = target: SARS-CoV-2 NSP13
Protocol: as §1

SARS-CoV-2 NSP14 = target: SARS-CoV-2 NSP14
Protocol: as §1

SARS-CoV-2 NSP15 = target: SARS-CoV-2 NSP15
Protocol: as §1

SARS-CoV-2 NSP2 = target: SARS-CoV-2 NSP2
Protocol: as §1

SARS-CoV-2 NSP4 = target: SARS-CoV-2 NSP4
Protocol: as §1

SARS-CoV-2 NSP5 = target: SARS-CoV-2 NSP5
Protocol: as §1

SARS-CoV-2 NSP6 = target: SARS-CoV-2 NSP6
Protocol: as §1

SARS-CoV-2 NSP7 = target: SARS-CoV-2 NSP7
Protocol: as §1

SARS-CoV-2 NSP8 = target: SARS-CoV-2 NSP8
Protocol: as §1

SARS-CoV-2 ORF10 = target: SARS-CoV-2 ORF10
Protocol: as §1

SARS-CoV-2 ORF3A = target: SARS-CoV-2 ORF3A
Protocol: as §1

SARS-CoV-2 ORF3B = target: SARS-CoV-2 ORF3B
Protocol: as §1

SARS-CoV-2 ORF6 = target: SARS-CoV-2 ORF6
Protocol: as §1

SARS-CoV-2 ORF7A = target: SARS-CoV-2 ORF7A
Protocol: as §1

SARS-CoV-2 ORF7B = target: SARS-CoV-2 ORF7B
Protocol: as §1

SARS-CoV-2 ORF8 = target: SARS-CoV-2 ORF8
Protocol: as §1

SARS-CoV-2 ORF9B = target: SARS-CoV-2 ORF9B
Protocol: as §1

SARS-CoV-2 S = target: SARS-CoV-2 S
Protocol: as §1

SARS-CoV-2 NSP16 = target: SARS-CoV-2 NSP16
Protocol: as §1

SARS-CoV-2 N = target: SARS-CoV-2 N
Protocol: as §1

SARS-CoV-2 NSP9 = target: SARS-CoV-2 NSP9
Protocol: as §1

Measured: yeast fitness gain

B1: CCDC50, Q8IVM0 (protein)
chain: MAEVSIDQSKLPGVKEVCRDFAVLEDHTLAHSLQEQEIEHHLASNVQRNRLVQHDLQVAKQLQEEDLKAQAQLQKRYKDLEQQDCEIAQEIQEKLAIEAERRRIQEKKDEDIARLLQEKELQEEKKRKKHFPEFPATRAYADSYYYEDGGMKPRVMKEAVSTPSRMAHRDQEWYDAEIARKLQEEELLATQVDMRAAQVAQDEEIARLLMAEEKKAYKKAKEREKSSLDKRKQDPEWKPKTAKAANSKSKESDEPHHSKNERPARPPPPIMTDGEDADYTHFTNQQSSTRHFSKSESSHKGFHYKH
inactive: SARS-CoV-2 M -0.0192 | SARS-CoV-2 NSP1 = 0.118 | SARS-CoV-2 NSP10 = 0.0548 | SARS-CoV-2 NSP12 = -0.0147 | SARS-CoV-2 NSP13 = 0.022 | SARS-CoV-2 NSP14 = -0.00609 | SARS-CoV-2 NSP15 = 0.0932 | SARS-CoV-2 NSP2 = -0.0709 | SARS-CoV-2 NSP4 = -0.693 | SARS-CoV-2 NSP5 = 0.0543 | SARS-CoV-2 NSP6 = 0.0165 | SARS-CoV-2 NSP7 = 0.0435 | SARS-CoV-2 NSP8 = 0.0108 | SARS-CoV-2 ORF10 = -0.00335 | SARS-CoV-2 ORF3A 0.0749 | SARS-CoV-2 ORF3B -0.0221 | SARS-CoV-2 ORF6 = -0.00483 | SARS-CoV-2 ORF7A -0.0185 | SARS-CoV-2 ORF7B 0.00914 | SARS-CoV-2 ORF8 = -0.0152 | SARS-CoV-2 ORF9B -0.0514 | SARS-CoV-2 S 0.0628

B2: BCAS2, O75934 (protein)
chain: MAGTGLVAGEVVVDALPYFDQGYEAPGVREAAAALVEEETRRYRPTKNYLSYLTAPDYSAFETDIMRNEFERLAARQPIELLSMKRYELPAPSSGQKNDITAWQECVNNSMAQLEHQAVRIENLELMSQHGCNAWKVYNENLVHMIEHAQKELQKLRKHIQDLNWQRKNMQLTAGSKLREMESNWVSLVSKNYEIERTIVQLENEIYQIKQQHGEANKENIRQDF
inactive: SARS-CoV-2 M -0.0927 | SARS-CoV-2 NSP10 = 0.0303 | SARS-CoV-2 NSP13 = -0.172 | SARS-CoV-2 NSP16 = -0.0014 | SARS-CoV-2 NSP2 = -0.261 | SARS-CoV-2 NSP8 = -0.00417 | SARS-CoV-2 ORF10 = 0.0998 | SARS-CoV-2 ORF3B -0.139 | SARS-CoV-2 ORF6 = -0.0561 | SARS-CoV-2 ORF7A -0.0322 | SARS-CoV-2 ORF8 = -0.0436 | SARS-CoV-2 ORF9B 0.0286 | SARS-CoV-2 S -0.0506

B3: C15orf40, Q8WUR7 (protein)
chain: MLRLRSGLRHLRATPNTRGSARLLCAEMPKKAGATTKGKSQSKEPERPLPPLGPVAVDPKGCVTIAIHAKPGSKQNAVTDLTAEAVNVAIAAPPSEGEANAELCRYLSKVLELRKSDVVLDKGGKSREKVVKLLASTTPEEILEKLKKEAKKT
inactive: SARS-CoV-2 M -0.0668 | SARS-CoV-2 N -0.0433 | SARS-CoV-2 NSP1 = -0.101 | SARS-CoV-2 NSP10 = -0.0627 | SARS-CoV-2 NSP12 = -0.00459 | SARS-CoV-2 NSP13 = -0.00539 | SARS-CoV-2 NSP14 = 0.0274 | SARS-CoV-2 NSP15 = 0.0125 | SARS-CoV-2 NSP2 = 0.0131 | SARS-CoV-2 NSP5 = -0.0272 | SARS-CoV-2 NSP6 = -0.0346 | SARS-CoV-2 NSP7 = 0.0249 | SARS-CoV-2 NSP8 = -0.0187 | SARS-CoV-2 ORF10 = -0.0231 | SARS-CoV-2 ORF3A -0.231 | SARS-CoV-2 ORF3B 0.00953 | SARS-CoV-2 ORF6 = 0.00387 | SARS-CoV-2 ORF7A -0.0428 | SARS-CoV-2 ORF7B -0.0361 | SARS-CoV-2 ORF9B 0.0123 | SARS-CoV-2 S -0.0701

B4: SOCS3, O14543 (protein)
chain: MVTHSKFPAAGMSRPLDTSLRLKTFSSKSEYQLVVNAVRKLQESGFYWSAVTGGEANLLLSAEPAGTFLIRDSSDQRHFFTLSVKTQSGTKNLRIQCEGGSFSLQSDPRSTQPVPRFDCVLKLVHHYMPPPGAPSFPSPPTEPSSEVPEQPSAQPLPGSPPRRAYYIYSGGEKIPLVLSRPLSSNVATLQHLCRKTVNGHLDSYEKVTQLPGPIREFLDQYDAPL
inactive: SARS-CoV-2 M -0.277 | SARS-CoV-2 N -0.118 | SARS-CoV-2 NSP1 = 0.0657 | SARS-CoV-2 NSP10 = -0.0224 | SARS-CoV-2 NSP12 = 0.113 | SARS-CoV-2 NSP13 = -0.0406 | SARS-CoV-2 NSP14 = 0.113 | SARS-CoV-2 NSP15 = -0.0363 | SARS-CoV-2 NSP16 = 0.0927 | SARS-CoV-2 NSP2 = -0.199 | SARS-CoV-2 NSP4 = -0.0735 | SARS-CoV-2 NSP5 = 0.0466 | SARS-CoV-2 NSP6 = -0.0308 | SARS-CoV-2 NSP7 = 0.0799 | SARS-CoV-2 NSP8 = 0.0752 | SARS-CoV-2 NSP9 = -0.104 | SARS-CoV-2 ORF10 = 0.00269 | SARS-CoV-2 ORF3A -0.191 | SARS-CoV-2 ORF3B -1.1e-05 | SARS-CoV-2 ORF6 = 0.0121 | SARS-CoV-2 ORF7A 0.0038 | SARS-CoV-2 ORF7B -0.0321 | SARS-CoV-2 ORF8 = 0.0433 | SARS-CoV-2 ORF9B -0.0353 | SARS-CoV-2 S 0.0164

B5: HBZ, P02008 (protein)
chain: MSLTKTERTIIVSMWAKISTQADTIGTETLERLFLSHPQTKTYFPHFDLHPGSAQLRAHGSKVVAAVGDAVKSIDDIGGALSKLSELHAYILRVDPVNFKLLSHCLLVTLAARFPADFTAEAHAAWDKFLSVVSSVLTEKYR
inactive: SARS-CoV-2 M -0.0187 | SARS-CoV-2 NSP12 = 0.124 | SARS-CoV-2 NSP13 = 0.124 | SARS-CoV-2 NSP16 = 0.059 | SARS-CoV-2 NSP2 = 0.126 | SARS-CoV-2 NSP5 = -0.211 | SARS-CoV-2 ORF3B -0.106 | SARS-CoV-2 ORF6 = 0.0481 | SARS-CoV-2 ORF7B -0.367 | SARS-CoV-2 ORF8 = 0.0237 | SARS-CoV-2 ORF9B 0.0135 | SARS-CoV-2 S 0.0825
